The source gives no read counts; variants with many changes may rest on few reads.
B1: LINE1-mini (parent)
chain: GGCAGAGCUCAACACAGCGUGGCAAAGUGGCUGUGGCUAGACUGCC

Variants of: B1
Assay: self-cleavage, relative activity (ratio to wild type); higher = more cleavage; in vitro, sequencing; the parent is a self-cleaving ribozyme

Row | Variant | self-cleavage
1 | GGCAGAGCUCAAGACAGCGUGGCAUAGUGGCUGAGGCUAGACUGCC [C13G A25U U34A] | 0.07
2 | GGCAGAGCUCAAGACAGGGUGGCAAAGUGGCUGAGGCUAGACUGCC [C13G C18G U34A] | 0.19
3 | GGCAGAGCUCAAAACAGCGUGGCAAAGUGGCUGGGGCUAGAAUGCC [C13A U34G C42A] | 0.03
4 | GGCAGAGCUCAAGACAGCGUGGCAAAGUGGUUGUGGCUAGACCGCC [C13G C31U U43C] | 0.01
5 | GGCAGAGCUCAAGACCGCGUGGCAUAGUGGCUGUGGCUAGACUGCC [C13G A16C A25U] | 0.04
6 | GGCAGAGCUCAAGAUAGCGUGGCAAAGUGGCAGUGGCUCGACUGCC [C13G C15U U32A A39C] | 0.03
7 | GGCAGAGCUCAAGACAGCGUGGCAACGUGGCUGUGGCUAGCCUGCC [C13G A26C A41C] | 0
8 | GGCAGAGCUCAAGACAGUAUGGCAAAGUGGCUGUGGCUAGACUGCU [C13G C18U G19A C46U] | 0.39
9 | GGCAGAGCUCAAAACAGCGUGGCAAAGUGGCUGCGGCAAGACUGCC [C13A U34C U38A] | 0.07
10 | GGCAGAGCUCAAGGCAGCGUAGCAAAGUGGCUGUGGCUAAACUGCC [C13G A14G G21A G40A] | 0.02
11 | GGCAGAGCUCAAGACAAAGUGGCAAAGUGGCUGUGACUAGACUGCC [C13G G17A C18A G36A] | 0.05
12 | GGCAGAGCUCAAGACAGUAUGGCAAAGUGGCUGUGGCAAGACUGCC [C13G C18U G19A U38A] | 0.08
13 | GGCAGAGCUCAAGAUAGCGUGUCAAAGUGGCUGUGGCCAGACUGCC [C13G C15U G22U U38C] | 0.04
14 | GGCAGAGCUCAAGAUAGCGUGGCAAAGUUGCUGUGGCUAGACUGCC [C13G C15U G29U] | 0.18
15 | GGCAGAGCUCAAGACAGCGUGGCGCAGUGGCUGUGGCUAGACUUCC [C13G A24G A25C G44U] | 0.03
16 | GGCAGAGCUCAAGACAGCGUGGAUAAGUGGCUGGGGCUAGACUGCC [C13G C23A A24U U34G] | 0.02
17 | GGCAGAGCUCAAGACAGUGUGGCAAAGUGGCUGUGUAUAGACUGCC [C13G C18U G36U C37A] | 0.1
18 | GGCAGAGCUCAAGACACCGUGGCAAAGUGCCUGUGGCGAGACUGCC [C13G G17C G30C U38G] | 0.03
19 | GGCAGAGCUCAAGACAGAGUGGCACAGCGGCUGAGGCCAAACUGCC [C13G C18A A25C U28C U34A U38C G40A] | 0.05

Row | Variant | self-cleavage
20 | GGCAGAGCUCAAGACAGUGUGGCAAAGUUGCUGUGGGUAGACUGCC [C13G C18U G29U C37G] | 0.13
21 | GGCAGAGCUCAAGUCUGCGUGGCCAAGUGGCUGUGGCUAGACUGCC [C13G A14U A16U A24C] | 0.03
22 | GGCAGAGCUCAAGACAGGGUGGAUAAGUGGCUGUGUCUAGACUGUC [C13G C18G C23A A24U G36U C45U] | 0.04
23 | GGCAGAGCUCAAGACAGCGUGGCAAAGUGGCUGUGGAUAGACUGGC [C13G C37A C45G] | 0.05
24 | GGCAGAGCUCAAGACAGCGUGGCAGAGUGGUUGUGAUUAGACUGCC [C13G A25G C31U G36A C37U] | 0.08
25 | GGCAGAGCUCAAGCCAGCGUGGCGAAGUGGCUGUGGCUAAACCGCC [C13G A14C A24G G40A U43C] | 0.03
26 | GGCAGAGCUCAAGACAACGUGGCAAAGUGGCUGUCGCUAGACUGGC [C13G G17A G35C C45G] | 0.08
27 | GGCAGAGCUCAAGACAUUGUGGCAAAGUGGCUGUUGCUAGACUGCC [C13G G17U C18U G35U] | 0.04
28 | GGCAGAGCUCAAGACGGCGUGGCAAACAGGCUGUGGCUAGACUGCC [C13G A16G G27C U28A] | 0.02
29 | GGCAGAGCUCAAGACAUGGUGGCAAAGUUGCUGUGGUUAGACUGUC [C13G G17U C18G G29U C37U C45U] | 0.01
30 | GGCAGAGCUCAAAACAGCGUGGCAAAGUGGCUGCGGCUAGAGUGCC [C13A U34C C42G] | 0.04
31 | GGCAGAGCUCAAGACCGCGUGGCAAAGUGGCUGUGACUAGACUGCC [C13G A16C G36A] | 0.01
32 | GGCAGAGCUCAAGACAGAGUGCCAAAGUGGCUGUGGCUAGACUAGG [C13G C18A G22C G44A C45G C46G] | 0.03
33 | GGCAGAGCUCAAGACGGCGUGACAUAGUGGCUGUGGCUAAACAGCU [C13G A16G G22A A25U G40A U43A C46U] | 0
34 | GGCAGAGCUCAAGCCAGCGUGGCAAAGUGGGUGUGGCUAGACUGCC [C13G A14C C31G] | 0.02
35 | GGCAGAGCUCAAGAAAGCGUGGCAAAGUGGCUGUGGCUACACUGCC [C13G C15A G40C] | 0.18
36 | GGCAGAGCUCAAGAAAGCGUGGCAAAGUGGCUGUGGCUAUACUGCC [C13G C15A G40U] | 0.13
37 | GGCAGAGCUCAAGAAAGCGUGGCAAAGUGGCUGUGGCUAAACUGCC [C13G C15A G40A] | 0.06
38 | GGCAGAGCUCAAGACAGGGUGGCAAAGUGGCUGUGGCUGGACAGUC [C13G C18G A39G U43A C45U] | 0.04

Row | Variant | self-cleavage
39 | GGCAGAGCUCAAGACAGCGUGGUAAAGUGACUGUGGCUAGACUGCC [C13G C23U G30A] | 0.21
40 | GGCAGAGCUCAAGACAGCGUGGCAAAGUGGAUGUGGCUAGAUUACC [C13G C31A C42U G44A] | 0.02
41 | GGCAGAGCUCAAAACAGCGUGGCAAAGUGGCUGAGGCUAGACUGAC [C13A U34A C45A] | 0.05
42 | GGCAGAGCUCAAGAAAGCGUGGCAAAGAGGCUGUGGCUAGACUGCC [C13G C15A U28A] | 0.17
43 | GGCAGAGCUCAAGGCAGCGUGGCAAAGUGGCUAUGGCCAGACUGCC [C13G A14G G33A U38C] | 0.06
44 | GGCAGAGCUCAAGACAUCGUGGCAGAGUGGCCGUGGCUAGACUGCG [C13G G17U A25G U32C C46G] | 0.05
45 | GGCAGAGCUCAAGACAGCGUGGUAAAGUGACUGUUGCUAGACUGCC [C13G C23U G30A G35U] | 1.68
46 | GGCAGAGCUCAAGACCGCGUGGCAAAGUGGGUGUGGCUAGACUGCC [C13G A16C C31G] | 0
47 | GGCAGAGCUCAAGACAGCGUGGCAUAGUGGCUGUGGCUAAACUGCC [C13G A25U G40A] | 0.03
48 | GGCAGAGCUCAAGACAGCGUGGCACAGAGGCUGUCGCUAGACUGCC [C13G A25C U28A G35C] | 0.5
49 | GGCAGAGCUCAAGACACCGUGGCAAUGUGGCUGUGGCUAGACUGCC [C13G G17C A26U] | 0.17
50 | GGCAGAGCUCAAAACAGCGUGGCAAAGUGGCUGAGUCUAGACUGCC [C13A U34A G36U] | 0.05
51 | GGCAGAGCUCAAGACAGGGUGGCAAAGUGGCUGUGGCUAGGCUGGC [C13G C18G A41G C45G] | 0.01
52 | GGCAGAGCUCAAGCCAGCGUGGCAAAGUGGCUGUGGCUAGACUGCU [C13G A14C C46U] | 0.03
53 | GGCAGAGCUCAAGACAGCGUGGCAAAGUGGCUGUGGAUAGACUUCC [C13G C37A G44U] | 0
54 | GGCAGAGCUCAAGACAGCGUGGCAGAGUGGAUGUGGCUAAACUGCC [C13G A25G C31A G40A] | 0.12
55 | GGCAGAGCUCAAGACAGCGUGGCAAAGUGGUUGUGAAUAGCCUGCG [C13G C31U G36A C37A A41C C46G] | 0
56 | GGCAGAGCUCAAGACAGCGUGGCAAUGUGGCUGUGGCUUGACUGCC [C13G A26U A39U] | 0.06

Reference: the RNAGym collection of RNA variant scans (doi:10.7554/elife.90254)
